# The shares of active, inactive and inconclusive entries below differ from those in the screen. Potencies beside an inconclusive call are fits to weak or partial responses and may not hold up. A structure can be active in one record and inactive in another. Active and inactive are the calls of the source. The call rests on the fitted dose curve; in most records, active means well fitted inhibition curve with a large enough effect in the repeat runs; inconclusive means weak or mixed curves; inactive means flat fitted curve, though single readings scatter.
# Target: Luciferin 4-monooxygenase (Photinus pyralis) (UniProt P08659)
# Sequence of UniProt P08659 (P08659 whole entry, looked up): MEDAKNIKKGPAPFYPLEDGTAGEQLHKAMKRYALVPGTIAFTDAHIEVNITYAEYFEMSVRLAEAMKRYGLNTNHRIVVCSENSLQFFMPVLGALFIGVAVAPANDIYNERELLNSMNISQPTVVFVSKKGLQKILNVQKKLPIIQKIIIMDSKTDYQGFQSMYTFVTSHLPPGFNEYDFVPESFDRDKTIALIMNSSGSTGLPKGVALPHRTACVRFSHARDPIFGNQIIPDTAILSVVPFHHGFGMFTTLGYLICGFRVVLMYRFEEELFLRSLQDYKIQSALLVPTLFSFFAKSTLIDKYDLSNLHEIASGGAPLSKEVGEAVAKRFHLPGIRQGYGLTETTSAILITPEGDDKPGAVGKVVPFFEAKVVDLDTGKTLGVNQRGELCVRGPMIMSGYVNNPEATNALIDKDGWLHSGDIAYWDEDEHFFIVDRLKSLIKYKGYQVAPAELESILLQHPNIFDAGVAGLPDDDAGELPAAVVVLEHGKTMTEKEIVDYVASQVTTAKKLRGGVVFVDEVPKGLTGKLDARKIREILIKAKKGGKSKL
# Assay: qHTS assay to identify small molecule inhibitors of firefly luciferase (AID 1224835); further: nearly all actives have a fitted effect of over 25% in size
# Conditions: purified P. pyralis luciferase, luminescence inhibition; series mostly up to 115 µM; activity change, negative = inhibition: at the top concentration
# Procedure, shortened: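 Inhibition of purified Photinus luciferase is measured by luminescence. Substrate levels (D-luciferin, ATP) sit at their KM values. Each compound is tested in a concentration series.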
# On the % scale 0 is the no-effect control and ±100 the full control effect; potency means the concentration at half of the fitted maximal effect; tags describe the fitted curve by direction and shape.
Structure (SMILES),"activity change, negative = inhibition",Potency
[O-][n+]1cccc(CO)c1,inactive: 8.25% [at 52.9 µM],
CCCCCCCCCCCC(=O)[O][Sn]([CH2]CCC)([CH2]CCC)[O]C(=O)CCCCCCCCCCC,,active: 34.7 µM
Cc1cc([N+](=O)[O-])ccc1N,,"inconclusive: 78.7 µM [inhibitor, partial curve, poor fit]"
CC(C)COC(=O)COc1cc(Cl)c(Cl)cc1Cl,,"inconclusive: 44.7 µM [inhibitor, partial curve]"
CC(=O)c1ccc2c(c1)[C@H](NC(=O)c1ccc(F)cc1)[C@@H](O)C(C)(C)O2,inactive: 0%,
CC(C)(C)c1cccc(O)c1,,"inconclusive: 63.3 µM [inhibitor, partial curve]"
CC(C)Cc1ccc(C(C)C(=O)OCc2ccccn2)cc1 (centres undefined),,"inconclusive: 24.5 µM [inhibitor, partial curve]"
CCC1CCC(CCC(=O)O)C1 (centres undefined),inactive: 0.178%,
O=C1CC[C@@H](C(=O)O)N1,inactive: -0.363% [at 52.9 µM],
CC1(C)[C@@H]2CC[C@@]1(C)[C@H](O)C2,,"inconclusive: 71 µM [inhibitor, single point]"
CCCCCCCC/C=C\CCCCCCCC(=O)O,,"inconclusive: 89.4 µM [inhibitor, single point]"
CN1Cc2cc(C(=O)N3CCC(C4CCNCC4)CC3)ccc2N[C@@H](CC(=O)O)C1=O,inactive: 1.98% [at 52.9 µM],
Cc1cccc(C(=O)O)c1[N+](=O)[O-],,"inconclusive: 89.5 µM [inhibitor, partial curve, poor fit]"
OCC1CC=CCC1 (centres undefined),,"inconclusive: 79.6 µM [inhibitor, partial curve, poor fit]"
CC(=O)OC(C)C,,inactive
Sc1nc(S)nc(S)n1,,"inconclusive: 48.7 µM [inhibitor, partial curve, poor fit]"
CCCCOCCOC(=O)c1cccnc1,inactive: 0.112% [at 52.9 µM],
Nc1c(S(=O)(=O)O)cc(Br)c2c1C(=O)c1ccccc1C2=O,,"inconclusive: 51.4 µM [inhibitor, single point]"
CN(CCOc1ccc(CC2SC(=O)NC2=O)cc1)c1ccccn1 (centres undefined),,active: 70.6 µM
CCCCCCCCCCCC(=O)OCC(O)CO (centres undefined),,"inconclusive: 44.8 µM [inhibitor, partial curve]"

Structure (SMILES),"activity change, negative = inhibition",Potency
CCC(C)(CCC(C)C)C(=O)[O-].CCC(C)(CCC(C)C)C(=O)[O-].[Zn+2] (centres undefined),,active: 25.2 µM
CCCCCCCCCCC(=O)O,,active: 57.1 µM
COc1ccc(C(=O)c2ccccc2O)c(O)c1,,"inconclusive: 39.8 µM [inhibitor, partial curve]"
CCN1C(=O)c2ccccc2C1Nc1ccc(OCCN2CCCCC2)cc1 (centres undefined),inactive: 3.85% [at 52.9 µM],
CC(=O)[O][Al][O]C(C)=O,,"inconclusive: 71 µM [inhibitor, partial curve]"
O=C1OC(=O)c2cc([N+](=O)[O-])ccc21,,"inconclusive: 70.7 µM [inhibitor, partial curve]"
C=CC(=O)O,,"inconclusive: 36.8 µM [inhibitor, single point]"
N#Cc1cc2ccccc2c2ccccc12,,"inconclusive: 71.4 µM [inhibitor, partial curve, poor fit]"
O=Nc1ccc(O)cc1,,"inconclusive: 77.8 µM [inhibitor, partial curve]"
NC(=O)c1ccc([N+](=O)[O-])cc1,inactive: 3.29%,
CCOC(=O)COc1cc(-n2ncc(C(F)(F)F)c(C)c2=O)c(F)cc1Cl,,"inconclusive: 79.6 µM [inhibitor, single point]"
O=c1c(-c2ccccc2)c1-c1ccccc1,,"inconclusive: 24.5 µM [inhibitor, partial curve]"
CCOC(=O)[C@H](CCc1ccccc1)N[C@@H](C)C(=O)N1C(=O)N(C)C[C@H]1C(=O)O,inactive: -2.22% [at 52.9 µM],
CCOCCOCCOC(C)=O,inactive: 0.75%,
C=CC(=O)OCCOC(=O)C=C,inactive: 2.38%,
Cc1cc(C)c(S(=O)(=O)O)cc1N=Nc1cc(S(=O)(=O)O)c2ccccc2c1O,,active: 1.42 µM
Brc1nc2ccccc2s1,,"inconclusive: 63.3 µM [inhibitor, partial curve]"
O=S(=O)(O)CCS,,"inconclusive: 43.6 µM [inhibitor, single point]"
Cc1ccc(C)c(C)c1,,inactive
